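Following 48 hours of exposure in 96-well plates, responses at five concentrations were used to interpolate endpoints linearly. GI50 = concentration required for 50% inhibition of growth.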 A number of entries come with more than one value. They are shown here; other results are not. The source may hold further records. For some of these results: Values that stand side by side are repeated measurements (runs, samples, wells, individuals or studies). Records carry a tag for their origin. The letters are not those of the source and start again with each entry.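 TGI: total growth inhibition.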 For some of these results: The tests behind the records often covered other concentration ranges, which the source does not state; some values may only mark the edge of a range.

Consider 4 compounds from PubChem BioAssay (NCI).

Among the test systems are NCI-H23 lung; HCC-2998 colon; RPMI-8226 leukemia; SR leukemia; U251 CNS; 786-0 renal; HCT-15 colon; M14 melanoma; SK-MEL-28 melanoma; SK-OV-3 ovarian; SNB-75 CNS; UACC-257 melanoma; UO-31 renal; DMS 273 small cell lung; SK-MEL-2 melanoma; SNB-78 CNS.
Holding throughout (experiment): NCI tumour cell line growth inhibition, 48 h

Regarding `O=C1c2cccc3cc([N+](=O)[O-])cc(c23)C(=O)N1CCNCCNCCNCCN1C(=O)c2cccc3cc([N+](=O)[O-])cc(c23)C1=O`, the TGI in the assay on NCI-H23 lung was 7.29 nM and 390 nM.

Take `O=C(/C=C/c1cccnc1)NCCCCC1CCN(C(=O)c2ccccc2)CC1`: the GI50 in the assay on HCC-2998 colon was > 100 µM [sample A, 1 test] and 419 nM [sample B, mean of 2 tests]; in the assay on RPMI-8226 leukemia, 1.34 µM [sample A, mean of 2 tests] and < 10 nM [sample B, mean of 2 tests]; in the assay on SR leukemia, 34.6 nM [sample A, 1 test] and 1.61 µM [sample B, mean of 2 tests]; with U251 CNS it was 141 nM [sample A, mean of 2 tests] and 11.4 µM [sample B, 1 test].

For the compound `COc1c(O)c2c(c3cc(C(=O)N4CCc5c4c(O)c(OC)c4[nH]c(C(=O)N6CC7CC78C6=CC(=O)c6[nH]cc(C)c68)cc54)[nH]c13)CCN2C(N)=O` (stereo unspecified), the TGI in the assay on 786-0 renal is 108 nM and > 100 µM; in the assay with HCT-15 colon it was 267 nM and 3.2 µM; with M14 melanoma, 3.71 nM and 490 nM; in the assay on SK-MEL-28 melanoma, 3.82 nM and > 100 µM; with SK-OV-3 ovarian, 6.8 nM and > 100 µM; in the assay with SNB-75 CNS, 18.7 nM and 270 nM. Besides, the TGI was 12.6 nM and 3.74 µM with UACC-257 melanoma; 24.6 nM and 449 nM in the assay with UO-31 renal.

With `CC(=O)OC1C(=O)C(O)C(C)OC1O[C@@H]1C[C@@]2(C)[C@@H]3CC=C4[C@@H](C[C@H](O)C(=O)C4(C)C)[C@]3(C)C(=O)C[C@]2(C)[C@H]1[C@@](C)(O)C(=O)/C=C/C(C)(C)O` (stereo partly specified), the TGI in the assay on DMS 273 small cell lung was 69.8 nM and > 10 µM; in the assay with SK-MEL-2 melanoma, 68.8 nM and 2.95 µM; with SNB-78 CNS it was 96.9 nM and 9.38 µM.
